Whole data set: some 33,000 sequences, median “E-score (-0.5 to 0.5)” near -0.04, cut for the highest 2% near 0.36. Some of the results follow.
Each sequence was assayed against T1, Hmlalpha2 (UniProt P0CY09) (assay: PBM E-score (8-mer binding enrichment) (E-score (-0.5 to 0.5)); higher = stronger / more preferred TF binding; most listed sequences are background and not binding sites). Conditions: protein concentration: 200 nM; construct: GST-full length.
T1 sequence: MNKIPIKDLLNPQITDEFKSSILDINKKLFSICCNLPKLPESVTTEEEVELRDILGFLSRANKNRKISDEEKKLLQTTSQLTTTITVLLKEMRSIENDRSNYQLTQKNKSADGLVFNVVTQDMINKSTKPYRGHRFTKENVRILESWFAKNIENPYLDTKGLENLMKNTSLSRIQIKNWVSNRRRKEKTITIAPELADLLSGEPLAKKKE
In short: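 Each ungapped eight-base word and its reverse complement, pooled, received an E-score from the Universal PBM Analysis Suite. Underlying scans, normalised with masliner, recorded fluorescent anti-GST bound to GST-tagged yeast transcription factors. These were applied at about 100-200 nM to universal all-10-mer Agilent arrays double-stranded by primer extension.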

| Sequence | PBM E-score |
| --- | --- |
| GGGCTCAC | -0.213 |
| GCCACAAA | -0.0235 |
| ACGAATCT | 0.198 |
| CTTGATCA | -0.0419 |
| CAGACCGA | -0.144 |
| CGATTCAA | -0.0313 |
| ATCCGGGA | -0.164 |
| GCTCTGAA | -0.0707 |
| AGGATATC | -0.0625 |
| ATAGTCAC | 0.0342 |
| AGTGTCCG | -0.0554 |
| AAGGTCCC | -0.103 |
| ACGGTAAC | 0.151 |
| CGGCGCTA | -0.179 |
| CAAACCGG | -0.101 |
| CGCAAACG | 0.1 |
| ACCAAGGC | -0.0893 |
| GCAGATGA | -0.0655 |
| CCTATGTA | 0.433 |
| AGCAGGTA | 0.0285 |
| GTATAGAC | 0.135 |
| AGGGTAAC | -0.0423 |
| CGATGAGA | -0.0765 |
| ATTAAATA | 0.238 |
| CCTGCAAC | -0.0882 |

| Sequence | PBM E-score |
| --- | --- |
| ATACAGGC | 0.0693 |
| ATTATCAG | -0.0762 |
| AGATGTAC | 0.121 |
| GTCTGTGA | -0.0585 |
| ATGTGCTG | 0.126 |
| AGTACTGC | -0.11 |
| TCCCGGCA | -0.297 |
| TCTAACAA | 0.0968 |
| CCAATCAC | -0.172 |
| CTTGTATA | 0.289 |
| CCACCCCC | -0.299 |
| CAAGAAAG | 0.0521 |
| AGGAACCA | -0.0406 |
| CCTTTGCG | -0.12 |
| AATTCTAT | 0.129 |
| GGCCCGTA | 0.0883 |
| GAGTCGTA | -0.222 |
| ACTGAATC | -0.0473 |
| GTTGTGTA | 0.448 |
| AGCCCTGA | -0.0785 |
| AGGAATCA | -0.00896 |
| TGTCAAAA | 0.349 |
| ACAGTGTC | -0.034 |
| CACTTCCC | -0.255 |
| ATTTTGGA | 0.064 |

| Sequence | PBM E-score |
| --- | --- |
| AATTGTAT | 0.165 |
| AAAAAAGG | -0.113 |
| CTCTAGGA | -0.287 |
| CTGAAATC | -0.0751 |
| CTTCACCA | -0.283 |
| ACACTCAG | -0.00545 |
| AGGAAATA | 0.153 |
| CCGGCCGC | -0.251 |
| CCGTACGA | -0.0889 |
| CCCACGTA | 0.0709 |
| AGTCATGC | -0.173 |
| GAAAATCA | 0.114 |
| CAGGACAA | 0.074 |
| GATCCGGA | -0.0624 |
| ATAGCATC | -0.0228 |
| ATACGGCG | -0.169 |
| AATTTCGC | -0.119 |
| ATATTTAG | 0.125 |
| AGGAATAC | 0.168 |
| TGGGGCAA | -0.251 |
| GCGGTCGA | -0.0746 |
| CGGGTATC | -0.27 |
| GGGTTATA | 0.0187 |
| ATACACAG | 0.408 |
| CATAAAGC | -0.0376 |

| Sequence | PBM E-score |
| --- | --- |
| CGCCAGAA | -0.259 |
| CATTCCAA | 0.04 |
| TTAGGAAA | -0.0393 |
| ACCGGCCC | -0.223 |
| AAGCTCCA | -0.23 |
| CTAGAAGA | -0.139 |
| GATCGTTA | -0.0702 |
| ATCAGCTG | -0.0098 |
| CCAGGCGA | -0.265 |
| CTTCCGAA | -0.099 |
| GATGACGA | 0.00187 |
| AGGACACA | 0.228 |
| CACCAGAA | -0.0535 |
| TCCTAAAA | 0.109 |
| GCATCGAC | -0.132 |
| TAACCCCA | -0.165 |
| CGGCCACC | -0.188 |
| CCAATGAC | -0.113 |
| GGAGACGA | -0.0733 |
| CCCTTGCA | -0.25 |
| CATACGCG | 0.177 |
| GCCATGAA | -0.121 |
| ATGCGGCC | -0.0979 |
| GTCAGACA | -0.0835 |
| AATTGCTG | -0.0142 |

| Sequence | PBM E-score |
| --- | --- |
| ATACCAAC | 0.178 |
| ACACGGCT | 0.32 |
| AAATAGAT | 0.123 |
| AGTTAGTG | 0.101 |
| TATCGGGA | -0.148 |
| TGCCAACA | 0.174 |
| AAACCGTG | -0.038 |
| ACTTTTGG | -0.133 |
| TATCCATA | -0.0491 |
| GCCGCATA | -0.121 |
| CCGTTACA | 0.314 |
| CCTGCAGC | -0.0852 |
| CGCCACAG | -0.0887 |
| TTATAGAA | 0.19 |
| AGGCCCAA | -0.164 |
| AGCAGTCA | -0.211 |
| ATTGAAAG | 0.024 |
| CCTGTTTC | -0.0968 |
| CCGAAATA | 0.13 |
| TGTAGGAA | 0.226 |
| ACATCCCT | 0.174 |
| ATGTCCTA | 0.0102 |
| AAATACCG | 0.0656 |
| AAGAGCTG | -0.187 |
| AGGTTGAA | 0.0137 |

| Sequence | PBM E-score |
| --- | --- |
| CACGTCCC | -0.191 |
| AACAAGGG | 0.275 |
| ATATTTCA | 0.0592 |
| AAAATGGT | -0.0156 |
| CGCATCAA | -0.0674 |
| CTCCCAAA | -0.219 |
| AAGATCTG | 0.101 |
| AAACAAAC | 0.206 |
| CTGATAGC | -0.28 |
| CATTCCGA | 0.0457 |
| GGCTCATA | -0.164 |
| TACGACGA | 0.0197 |
| CAAATCAG | 0.0758 |
| GGGGCCCA | -0.35 |
| ACCCCAAA | -0.14 |
| AGCACCTC | -0.0876 |
| CCTAAATA | 0.0479 |
| ACTCAACG | 0.137 |
| ATAGGTGG | -0.089 |
| ACGGCGCT | -0.145 |
| ACTTAAGG | -0.0952 |
| ATTGACCC | -0.151 |
| GTACGCCA | -0.124 |
| ACTAAACG | 0.209 |
| CTGACTAC | 0.1 |

| Sequence | PBM E-score |
| --- | --- |
| GAGAGCTA | -0.0115 |
| AACGACGA | 0.00043 |
| ACCGTACA | 0.133 |
| GAAGATGA | -0.0889 |
| GGAAAGCC | -0.165 |
| ATGAATGA | 0.0669 |
| CCCATGAG | -0.358 |
| GTCCCTTA | -0.127 |
| TGGTGCAA | -0.171 |
| ATTGGCCA | 0.0475 |
| GGAGTATA | -0.109 |
| AACGCGGC | 0.127 |
| CCGGACAA | 0.0112 |
| TCCGGCGA | -0.158 |
| GACCTCCA | -0.0969 |
| GTGATCGA | 0.137 |
| CGGTCTTC | -0.19 |
| TAGCGGCA | -0.0566 |
| GGGAGGAA | -0.191 |
| GAAGTGGA | -0.103 |
| AAACCAGC | -0.0019 |
| CGATTCCG | -0.248 |

Reference: the supplement of paper PMC3334620
